Source: the supplement of paper PMC3334620
In all, about 33,000 sequences were measured (“E-score (-0.5 to 0.5)”: median about -0.056, highest 2% from about 0.38 on). The list shows a part of the results.

The sequences below were run against Stb4 (UniProt P50104) (assay: PBM E-score (8-mer binding enrichment) (E-score (-0.5 to 0.5)); higher = stronger / more preferred TF binding; most listed sequences are background and not binding sites). Conditions: protein concentration: 200 nM; construct: GST-DNA-binding domain.
How it was run: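 E-scores (a modified Wilcoxon-Mann-Whitney statistic) were assigned by the Universal PBM Analysis Suite to every ungapped eight-base word pooled with its reverse complement. The input came from universal all-10-mer Agilent arrays made double-stranded by primer extension and probed with GST-tagged yeast transcription factors at about 100-200 nM. Fluorescent anti-GST detected bound protein, and masliner normalised the scans.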

Sequence | PBM E-score
GCGCATAA | -0.139
CAGGCATA | -0.283
GATAGCAC | -0.0151
GACTGCTC | -0.0224
GAAGCCGC | 0.193
CGGAACAG | 0.427
TCCCACCA | -0.0168
AAGTACGA | 0.111
GGGACGGA | 0.254
AGTGCTCC | 0.0755
AACCGATT | 0.317
CGAACCAC | 0.167
GAGTAATC | -0.0725
AAAATGTT | -0.163
GTAAATCA | 0.126
GCTGGACC | -0.00284
ATGTATCA | -0.151
AGAATCAG | -0.0131
CAATGGAC | -0.136
CTCGGGCC | 0.343
ACTTAACT | -0.00924
CTGGGCTC | -0.147
GAGCGAAA | 0.0769
CGAGTCCA | 0.0087
CCCAGACC | -0.161

Sequence | PBM E-score
ATTTAGCG | -0.0337
ACCACAAC | 0.0425
GACTGCTA | -0.253
CCGCCCAG | 0.114
ACTGCATA | -0.135
CACACTAA | -0.194
GTGAGCGA | -0.053
AGGCTGAA | -0.207
AAGGGTGA | -0.111
CCGTCTCC | 0.0898
CAGGAGCG | -0.122
GACCGTGC | -0.0904
ACTCGTAT | -0.0951
AGAGACCC | -0.0488
AGCACCGG | 0.193
GGTGTAGA | -0.0413
GCCTGGCA | -0.191
AATAAAAT | -0.26
ATCTCCAC | -0.0508
AAGCGTTC | -0.0336
GATTCCCA | -0.109
AGACATCT | -0.148
AGCATCCT | 0.0794
ACAACCAA | -0.198
GAGCATAC | -0.0688

Sequence | PBM E-score
AAAGCTTA | -0.261
AGTCCCAC | -0.093
CGAATTCC | 0.267
ATGCAATA | -0.244
TCACTTCA | -0.184
GCAACAAC | -0.137
CGAAATAA | 0.276
CTGGTAAG | -0.136
ACATATTA | -0.0926
AGGTTTGA | -0.1
AAGAGGAA | -0.184
ATGTGTGG | -0.018
GATGCGCA | -0.047
GGCGGTAC | 0.0184
TCAGCGCA | -0.0691
TCTCTCAA | -0.0933
AGACAACA | -0.121
ACAAATAT | 0.112
GGAGCGTA | 0.0909
ATTAGTCC | 0.124
AAGACACC | 0.077
AAACTAAC | 0.0734
ACTCGTTA | -0.0258
ATCGTCAT | -0.231
CACTAACA | -0.107

Sequence | PBM E-score
ACACGAAC | -0.0584
CGTTTCAC | 0.00258
CCTTCAAC | -0.111
CCCGTACG | 0.0714
ACGACTGG | -0.0301
CCTGCCTC | -0.0255
CGGGGCAA | 0.13
CTAGAATC | 0.0279
GCTTGGCC | 0.0648
CTGTCACC | 0.0195
CTTTAAAG | -0.158
CATGTCAG | -0.172
GAAGCCTA | 0.117
AGTTGACG | -0.097
AGTGAGCC | -0.0295
GATCAAAC | -0.0711
CATCACTC | 0.0169
TCAGCCCA | -0.11
CGGACACA | 0.134
ACCGAAGT | 0.293
GGGAGGAC | -0.0397
ATGCCTCC | -0.134
CCCTCAGA | -0.349
AATAGTCC | -0.00049
GAACCCCC | -0.0505

Sequence | PBM E-score
AGACTATA | -0.0872
AATTTCCT | -0.0502
CAGGATCC | 0.0418
TTAGAGAA | -0.144
CACGGACG | 0.0862
CGCTTGCC | 0.0497
CAATTAAA | -0.0683
CGACGTCA | -0.0255
AGTAAACC | 0.062
CATAATAC | -0.185
ATTCTAGC | -0.0577
CAGATATG | -0.0664
TCAAAGAA | -0.305
GTGGGTTA | -0.122
ATACTAAT | -0.00279
GCATTGGA | -0.0208
GCCATGCC | 0.0341
GAAGGGTA | 0.146
GATCTTGA | -0.0297
CCAACAAC | -0.117
AAGCGCCG | 0.252
GGACGAAA | 0.118
CCTCTACA | -0.25
AAAGTTGA | -0.11
ATGTTTGG | -0.0983

Sequence | PBM E-score
AGGCTCAC | -0.103
AGCATTTC | -0.0674
CACTTAAA | -0.0891
CTTCGGAA | 0.485
GACCCCCC | -0.0614
ATACTTCG | 0.257
TAAAAGCA | 0.208
AGGCCACC | -0.174
TCTTGGAA | -0.111
AGAATAAT | -0.0947
AGCCGACA | 0.277
CTATCTCC | -0.111
CGGTGATC | 0.115
TGAACGCA | -0.149
AATCTTCG | 0.0638
AATCCTCC | 0.118
ACGGCTGA | 0.0101
CCTTCTTC | -0.0936
AGCGACAC | -0.138
AACTGTCG | -0.0418
CATTACGC | 0.116
ATGTGGGC | -0.0588
CACAGCTA | -0.0955
ACGGACGG | 0.142
CGATAGGA | 0.0095

Sequence | PBM E-score
GCTCCAGA | -0.0863
AATCCCAC | 0.0491
CGTCGCCC | -0.0819
CCCCAGCC | -0.107
ATAAGCAT | -0.0982
CAGGTGGG | -0.0585
CAAGATAC | -0.185
ATGGAAGA | -0.0187
ATGTATAA | -0.0161
AAGCGATG | -0.195
GGAGATTA | 0.0261
GAAAACAA | 0.0824
TGGGCCAA | -0.0827
GCTGGGAA | 0.0669
ATCTCTCA | -0.0705
TAAGTGTA | -0.148
CGCACCCC | 0.0164
TTAGCCAA | -0.159
TAACAGAA | -0.117
CGTTCGCA | -0.255
CCGGGTAG | 0.355
CGTAACGA | -0.192
ACTGCGGC | 0.0711
CATTTTGA | -0.162
CGCTTAAA | -0.0775

Sequence | PBM E-score
CGACCCCG | 0.217
AGACTACG | -0.146
GCATACAC | 0.0295
AAATATAG | -0.0277
GAGGCTCA | -0.22
CCTTTATC | -0.0418
CTCCCAGC | -0.0979
TAAGGATA | 0.00463
ATTATTCA | -0.0678
ACGGCCAC | -0.0623
ATGGTTGA | -0.127
CACAACTA | 0.0556
CTCACAAA | 0.0299
CGCGTGGC | -0.0796
AATTCAGG | -0.0525
GGTGCTAA | -0.0165
AATCAATG | 0.034
AATCTACG | 0.0182
GTGTGAGA | -0.196
CAGTGTAC | -0.0701
TAACAATA | -0.0588
CGGAATAG | 0.357
TATCTTCA | -0.189
CGGTTGCC | 0.243
AATGTTAG | -0.0387

Sequence | PBM E-score
GCTCCTGA | -0.0055
CACAAGCG | -0.223
GAGAGAAC | -0.132
ACTGGAAT | -0.142
CGCAGGGC | -0.0286
CCGTTCCA | 0.183
TCTGACAA | -0.0896
CGCAACTA | 0.0471
AGCTATTA | -0.136
GAAGGCGC | -0.185
ATAATTCA | -0.045
GAGCCTAA | -0.0415
CGTTAACG | 0.0456
TGCCGTAA | 0.0829
CAAGAACC | -0.0737
AGAGTGTG | -0.111
ACAGTTAG | -0.171
GACTCGTA | -0.1
ACACATAG | -0.244
